Reference: article PMC5795388

Tests used:
Assay in all cases: cross-link between two proteins; cross-linking mass spectrometry
[1] = target: T1, ATP synthase F(1) complex subunit gamma, mitochondrial (UniProt Q91VR2)
T1 sequence: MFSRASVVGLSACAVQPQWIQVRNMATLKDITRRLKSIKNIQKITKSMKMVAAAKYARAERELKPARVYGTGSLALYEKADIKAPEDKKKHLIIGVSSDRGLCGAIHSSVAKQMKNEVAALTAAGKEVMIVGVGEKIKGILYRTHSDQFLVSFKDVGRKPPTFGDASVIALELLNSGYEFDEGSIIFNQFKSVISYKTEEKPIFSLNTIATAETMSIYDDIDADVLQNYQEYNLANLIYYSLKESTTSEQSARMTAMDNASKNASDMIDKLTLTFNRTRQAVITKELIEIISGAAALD

[2] = target: T2, MICOS complex subunit Mic60 (UniProt Q8CAQ8)
T2 sequence: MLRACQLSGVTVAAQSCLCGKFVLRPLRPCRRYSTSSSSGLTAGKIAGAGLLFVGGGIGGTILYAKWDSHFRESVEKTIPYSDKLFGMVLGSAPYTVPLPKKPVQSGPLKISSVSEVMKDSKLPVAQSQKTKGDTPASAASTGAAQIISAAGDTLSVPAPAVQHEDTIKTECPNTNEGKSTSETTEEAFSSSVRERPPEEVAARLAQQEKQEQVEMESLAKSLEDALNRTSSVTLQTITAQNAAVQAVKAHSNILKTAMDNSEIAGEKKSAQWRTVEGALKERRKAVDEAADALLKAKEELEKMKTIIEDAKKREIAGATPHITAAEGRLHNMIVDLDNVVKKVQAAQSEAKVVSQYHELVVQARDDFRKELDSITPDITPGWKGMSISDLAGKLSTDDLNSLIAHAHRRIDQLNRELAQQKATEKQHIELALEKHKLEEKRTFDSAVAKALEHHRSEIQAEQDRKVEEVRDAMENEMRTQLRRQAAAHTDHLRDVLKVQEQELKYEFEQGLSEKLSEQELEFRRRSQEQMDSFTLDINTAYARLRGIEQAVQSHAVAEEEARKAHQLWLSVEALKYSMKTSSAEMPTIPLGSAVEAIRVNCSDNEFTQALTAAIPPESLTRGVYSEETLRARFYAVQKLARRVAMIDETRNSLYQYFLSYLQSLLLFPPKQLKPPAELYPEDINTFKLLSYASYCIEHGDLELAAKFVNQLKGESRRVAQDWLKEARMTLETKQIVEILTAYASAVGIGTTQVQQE

[3] = target: T3, NADH dehydrogenase [ubiquinone] 1 alpha subcomplex subunit 10, mitochondrial (UniProt Q99LC3)
T3 sequence: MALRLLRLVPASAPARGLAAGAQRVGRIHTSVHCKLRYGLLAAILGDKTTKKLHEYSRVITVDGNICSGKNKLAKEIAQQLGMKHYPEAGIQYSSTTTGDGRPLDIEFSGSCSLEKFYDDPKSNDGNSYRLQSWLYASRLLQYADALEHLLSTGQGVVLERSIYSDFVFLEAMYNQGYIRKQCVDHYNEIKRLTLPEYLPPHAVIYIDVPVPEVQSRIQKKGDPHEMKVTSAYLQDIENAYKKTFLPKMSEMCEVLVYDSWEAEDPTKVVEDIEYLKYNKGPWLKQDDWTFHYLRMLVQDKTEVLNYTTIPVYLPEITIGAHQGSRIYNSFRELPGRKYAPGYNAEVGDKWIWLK

[4] = target: NADH dehydrogenase [ubiquinone] 1 alpha subcomplex subunit 13 (UniProt Q9ERS2)
Sequence of UniProt Q9ERS2 (Q9ERS2 whole entry, one chain of several): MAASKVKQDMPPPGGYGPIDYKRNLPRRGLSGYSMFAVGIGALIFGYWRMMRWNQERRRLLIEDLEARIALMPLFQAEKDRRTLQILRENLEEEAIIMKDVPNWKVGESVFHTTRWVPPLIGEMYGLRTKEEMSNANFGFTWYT

Sequence of ATP synthase F(1) complex catalytic subunit beta, mitochondrial (chain, as listed by the source): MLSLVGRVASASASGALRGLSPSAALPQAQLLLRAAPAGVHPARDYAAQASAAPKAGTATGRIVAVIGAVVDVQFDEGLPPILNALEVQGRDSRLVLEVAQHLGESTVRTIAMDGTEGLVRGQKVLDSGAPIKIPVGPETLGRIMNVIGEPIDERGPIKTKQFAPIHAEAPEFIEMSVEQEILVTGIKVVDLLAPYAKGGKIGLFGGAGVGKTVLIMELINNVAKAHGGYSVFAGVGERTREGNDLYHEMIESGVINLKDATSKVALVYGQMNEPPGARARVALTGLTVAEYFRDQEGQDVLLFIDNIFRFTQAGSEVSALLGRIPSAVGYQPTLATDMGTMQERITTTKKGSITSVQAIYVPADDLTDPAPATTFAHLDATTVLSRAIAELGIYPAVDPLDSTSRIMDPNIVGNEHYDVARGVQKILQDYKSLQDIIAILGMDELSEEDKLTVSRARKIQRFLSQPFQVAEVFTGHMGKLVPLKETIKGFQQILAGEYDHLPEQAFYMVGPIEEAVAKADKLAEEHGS
Sequence of NADH dehydrogenase [ubiquinone] iron-sulfur protein 2, mitochondrial (chain, as listed by the source): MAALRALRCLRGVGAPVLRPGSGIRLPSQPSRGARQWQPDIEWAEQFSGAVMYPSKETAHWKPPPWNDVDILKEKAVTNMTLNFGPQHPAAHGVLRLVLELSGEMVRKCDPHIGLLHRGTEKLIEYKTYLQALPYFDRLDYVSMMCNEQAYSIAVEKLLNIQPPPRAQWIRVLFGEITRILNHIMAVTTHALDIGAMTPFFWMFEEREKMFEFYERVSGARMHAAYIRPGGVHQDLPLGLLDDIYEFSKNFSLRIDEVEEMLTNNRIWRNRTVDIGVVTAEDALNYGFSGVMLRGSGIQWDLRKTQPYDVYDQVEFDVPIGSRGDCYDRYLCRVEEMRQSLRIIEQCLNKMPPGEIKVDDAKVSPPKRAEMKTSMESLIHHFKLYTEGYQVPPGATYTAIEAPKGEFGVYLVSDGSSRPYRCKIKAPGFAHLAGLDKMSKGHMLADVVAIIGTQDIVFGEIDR
Sequence of NADH dehydrogenase [ubiquinone] iron-sulfur protein 3, mitochondrial (chain, as listed by the source): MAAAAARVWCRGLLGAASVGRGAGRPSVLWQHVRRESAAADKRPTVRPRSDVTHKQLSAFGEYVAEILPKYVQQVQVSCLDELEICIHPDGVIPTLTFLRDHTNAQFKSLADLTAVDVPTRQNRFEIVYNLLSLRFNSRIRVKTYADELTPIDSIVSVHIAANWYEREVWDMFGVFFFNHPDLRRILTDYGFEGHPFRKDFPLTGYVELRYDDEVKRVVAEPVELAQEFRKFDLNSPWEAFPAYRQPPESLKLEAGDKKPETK

ATP synthase F(1) complex catalytic subunit beta, mitochondrial
listed as a hit [1]: yes | listed as a hit [2]: yes

NADH dehydrogenase [ubiquinone] iron-sulfur protein 2, mitochondrial
listed as a hit [3]: yes

NADH dehydrogenase [ubiquinone] iron-sulfur protein 3, mitochondrial
listed as a hit [4]: yes
